# Out of some 350,000 compounds screened, about 260 (0.074%) were called active. Inconclusive results, whose numbers are uncertain, are shown with a selection of clear calls. Calls come from the whole dose curve; as a rule, active = well fitted inhibition curve with a large enough effect; inconclusive = small, poorly fitted or top-dose-only effect; inactive = no such curve, though single readings can be large or run the other way. A potency beside an inconclusive call is a rough fit, not a confirmed value.
# Target: Ferritin light chain (Equus caballus) (UniProt P02791)
# Sequence of UniProt P02791 (P02791 whole entry, looked up): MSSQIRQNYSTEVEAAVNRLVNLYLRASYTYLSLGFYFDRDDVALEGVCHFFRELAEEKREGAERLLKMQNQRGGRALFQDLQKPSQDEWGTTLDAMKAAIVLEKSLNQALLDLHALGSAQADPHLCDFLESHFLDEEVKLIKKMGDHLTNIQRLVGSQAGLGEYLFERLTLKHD
# Assay: qHTS Assay for Identification of Novel General Anesthetics; note: nearly all actives have a fitted effect of over 20% in size
# Details: apoferritin/1-aminoanthracene competitive binding, fluorescence; activity change, negative = displacement: at 77.5 µM (top of the series)
# Summary of the method: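 10 uM apoferritin + 50% sat. 1-AMA, PBS; cpd 10 min RT; Ex380/Em535 endpoint; normalized to free probe vs complex; 4-param Hill fit; propofol titration as pos. ctrl.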
# % is set by controls: 0 for no effect and ±100 for the full control effect; potency is the fitted concentration of half-maximal effect; tags give direction and shape of the fitted curve.
SMILES,Potency,"activity change, negative = displacement"
COc1cc(OC)cc(C2=NC3(CCC(C)CC3)NC2=S)c1 (stereo not drawn),"inconclusive: 25.1 µM [inhibitor, partial curve]",–
CCC(CC)c1nnc(NC(=O)c2c(C)nn(Cc3ccccc3Cl)c2C)s1,"inconclusive: 3.98 µM [inhibitor, partial curve]",–
CC(=O)Cn1nnc2sc3c(c2c1=O)CCC(C(C)(C)C)C3 (stereo not drawn),"inconclusive: 35.5 µM [inhibitor, single point]",–
Cc1cc(C)cc(N2CC(O)=C(c3nc4ccccc4c(=O)[nH]3)C2=N)c1,"inconclusive: 28.2 µM [inhibitor, partial curve]",–
COc1cccc(NC(=O)CSc2nnc(COc3ccc(Cl)cc3)o2)c1,"inconclusive: 11.2 µM [inhibitor, partial curve]",–
COc1cc(O)sc1C=Nc1ccc(Cl)cc1,"inconclusive: 25.1 µM [inhibitor, partial curve]",–
O=S(=O)(Nc1nccs1)c1ccc(NCc2cc(Br)cc(Br)c2O)cc1,–,inactive: -5.41%
O=C(CSc1ccc2ccccc2n1)NCc1ccc2c(c1)OCO2,"inconclusive: 25.1 µM [inhibitor, single point]",–
CC(C)(C)C(=O)NC(=S)NNC(=O)c1sc2ccccc2c1Cl,–,inactive: 0.261%
CCN(CC)CCN(C(=O)c1ccc(C(=O)c2ccccc2)cc1)c1nc2cc3c(cc2s1)OCO3,"inconclusive: 31.6 µM [inhibitor, single point]",–
Cc1ccc(/C=C/C(=O)Nc2sc(C)c(C)c2C(=O)OC(C)C)o1,–,inactive: 0.202%
Cc1ccc(C)c(C(=O)Cn2ncc(Cl)c(Cl)c2=O)c1,"inconclusive: 15.8 µM [inhibitor, partial curve]",–
Fc1ccc(-[n+]2nc(Nc3ccccc3)sc2-c2c(Cl)cccc2Cl)cc1,"inconclusive: 15.8 µM [inhibitor, partial curve]",–
CC(C)(C)OC(=O)NC(Cc1ccccc1)C(O)c1ccco1 (stereo not drawn),"inconclusive: 39.8 µM [inhibitor, single point]",–
COc1cc(C(=O)NCC(=O)OCC(=O)N2CCc3ccccc32)cc(OC)c1OC,"inconclusive: 25.1 µM [inhibitor, partial curve]",–
COCCNC(=O)/C(C#N)=C/c1ccc(OC(=O)c2cccs2)c(OC)c1,"inconclusive: 35.5 µM [inhibitor, partial curve]",–
CCN(CC)CCn1c(NCc2ccc(OC)cc2)nc2ccccc21,–,inactive: -10.1%
CN(c1ccc(C(=O)N/N=C/c2cccc([N+](=O)[O-])c2)cc1)S(=O)(=O)c1ccccc1,"inconclusive: 12.6 µM [inhibitor, partial curve]",–
